Results reported in PubChem BioAssay AID1768 (National Center for Advancing Translational Sciences (NCATS), 2009).
Where “and” joins values, the source holds several entries; their conditions need not be identical. Equal values may be shown once. Out of some 270,000 compounds screened, about 620 (0.23%) were called active. The inconclusive results got no clear call from the source; some entries with a clear call stand among them for comparison. Calls come from the whole dose curve; as a rule, active = well fitted inhibition curve with a large enough effect in the polarisation, with a control signal flat (not every such curve was filed as active); inconclusive = small, poorly fitted or top-dose-only effect, or effect the other way, or a change in a side signal; inactive = no such curve, though single readings can be large or run the other way; the % refers to the polarisation. Potencies of inconclusive entries are doubtful fits and often do not repeat. A note “side channel” means that the fit belongs to a control or component signal, not to the main read-out.

Molecular target: Menin (Homo sapiens) (UniProt O00255)
Experiment: qHTS Assay for Inhibitors Targeting the Menin-MLL Interaction in MLL Related Leukemias: Competition With Texas Red Labeled MLL-derived Mutant Peptide
Conditions: fluorescence polarization; series mostly up to 61.6 µM
Potency is the fitted concentration of half-maximal effect; tags give direction and shape of the fitted curve or compound fluorescence and quenching.

Sequence of UniProt O00255 (O00255 whole entry, looked up): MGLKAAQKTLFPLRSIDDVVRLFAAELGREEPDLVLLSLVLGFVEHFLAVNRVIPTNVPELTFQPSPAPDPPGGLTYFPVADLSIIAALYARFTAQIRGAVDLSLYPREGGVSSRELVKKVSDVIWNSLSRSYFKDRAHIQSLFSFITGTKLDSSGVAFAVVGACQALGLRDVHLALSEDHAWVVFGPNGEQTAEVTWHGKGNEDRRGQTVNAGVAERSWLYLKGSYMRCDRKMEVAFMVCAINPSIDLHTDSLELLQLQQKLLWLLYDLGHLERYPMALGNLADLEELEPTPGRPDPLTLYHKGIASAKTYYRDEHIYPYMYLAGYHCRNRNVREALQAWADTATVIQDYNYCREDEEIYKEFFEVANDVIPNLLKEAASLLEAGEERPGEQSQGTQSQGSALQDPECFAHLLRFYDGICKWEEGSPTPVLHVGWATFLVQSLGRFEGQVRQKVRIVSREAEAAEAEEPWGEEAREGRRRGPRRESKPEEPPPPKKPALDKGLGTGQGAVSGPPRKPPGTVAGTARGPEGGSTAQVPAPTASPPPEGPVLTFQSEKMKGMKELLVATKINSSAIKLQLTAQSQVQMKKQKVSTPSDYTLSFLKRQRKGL

Compound	Potency
COc1ccc(C)cc1N(CC(=O)N1CCc2ccccc2C1)S(C)(=O)=O	inconclusive: 8.91 µM [fluorescent, side channel, partial curve]
O=C(Nc1ccc(Cl)cc1)N1CCc2[nH]c3ccccc3c2C1	inconclusive: 31.6 µM [quencher, side channel, single point]
CC1CN(CCOc2ccc([N+](=O)[O-])cc2)CC(C)O1 (stereo unspecified)	inactive
O=S(=O)(Nc1ccc2oc(-c3ccccc3)nc2c1)c1ccccc1	inconclusive: 39.8 µM [quencher, side channel, single point]
C=CCOc1cccc(C2C(C(=O)c3cc4ccccc4o3)=C(O)C(=O)N2c2cc(C)on2)c1 (stereo unspecified)	inconclusive: 10 µM [quencher, side channel, partial curve]
Cc1ccc(OCCCc2c(C)n[nH]c2C)cc1	inconclusive: 10 µM [fluorescent, side channel, partial curve]
CC1CCCC(C)N1C(=O)CSc1nnc(COc2ccccc2)n1-c1ccccc1 (stereo unspecified)	inconclusive: 7.08 µM [fluorescent, side channel, full curve, poor fit]
OCC1=CC[N+]2(Cc3ccccc3)CCC(O)[C@@H]12 (stereo partly specified)	inconclusive: 8.91 µM [quencher, side channel, single point]
Cc1ccc(NC(=O)c2sc3nc(N)c(C#N)cc3c2N)cc1	inconclusive: 20 µM [quencher, side channel, single point]
OC(CNc1ccccc1)Cn1ccc2ccccc21 (stereo unspecified)	inconclusive: 11.2 µM [quencher, side channel, partial curve]
COc1cccc(Nc2ncc3nc(-c4ccccc4)c(=O)n(C)c3n2)c1	inconclusive: 3.16 µM [quencher, side channel, full curve]
CCOc1ccc(N=Nc2ccc(O)c3ncccc23)cc1	inconclusive: 3.98 µM [quencher, side channel, partial curve]
Cc1ccc2nc(C3CCCN3Cc3nc(CCC(C)C)no3)[nH]c2c1 (stereo unspecified)	inconclusive: 22.4 µM [fluorescent, side channel, partial curve]
Cc1ccc(NC(=O)Nc2cccs2)cc1	inconclusive: 20 µM [quencher, side channel, partial curve]
C=CCC(C)(O)C#Cc1ccccc1 (stereo unspecified)	inactive
CC(C)Nc1nc(SC(C)C(=O)Nc2ccccc2)nc(N(C)C)n1 (stereo unspecified)	inactive
Cc1cc(C)c(NC(=O)CSc2nc3ccc(N4C(=O)c5ccccc5C4=O)cc3s2)c(C)c1	inconclusive: 4.47 µM [fluorescent, side channel, single point]
CC(=O)Nc1ccc(S(=O)(=O)N(Cc2ccccc2)c2ccccc2F)cc1	inconclusive: 15.8 µM [quencher, side channel, partial curve]

Compound	Potency
Cc1cc(C)cc(NC(=S)N2CCC(N(C)CC3CCCO3)CC2)c1 (stereo unspecified)	inconclusive: 39.8 µM [inhibitor, single point]
Cc1cccc(N2CCN(C(=O)CSc3nc4ccccc4nc3N3CC(C)OC(C)C3)CC2)c1C (stereo unspecified)	inconclusive: 31.6 µM [fluorescent, side channel, partial curve]
CCCCN1C(=O)CCC(C(=O)O)C1c1ccccc1 (stereo unspecified)	inconclusive: 3.98 µM [inhibitor, partial curve]
Cc1ccc(NCCC(=O)c2ccc(Br)cc2)cc1	inconclusive: 39.8 µM [inhibitor, single point]
C/C(=N/NC(=O)CCC(=O)Nc1ccc(Br)cc1)c1ccc(Br)cc1	inconclusive: 35.5 µM [fluorescent, side channel, single point]
COc1ccc2nc(NC(=O)c3cnccn3)sc2c1	inconclusive: 35.5 µM [quencher, side channel, partial curve]
COc1ccc(S(=O)(=O)N2CCc3ccccc32)cc1[N+](=O)[O-]	inconclusive: 22.4 µM [quencher, side channel, partial curve]
O=C(CSc1nnnn1-c1ccc(O)cc1)Nc1cccc(S(=O)(=O)N2CCCC2)c1	inconclusive: 28.2 µM [quencher, side channel, single point]
CCN(Cc1ccccc1)S(=O)(=O)c1ccc(C(=O)Nc2nnc(C)o2)cc1	inconclusive: 10 µM [quencher, side channel, partial curve]
Cc1ccc(Nc2nc3ccccc3c(=O)[nH]2)cc1C	inconclusive: 17.8 µM [quencher, side channel, partial curve]
CCN(CC)S(=O)(=O)c1cc(NC(=O)c2n[nH]c(=O)c3ccccc23)ccc1C	inconclusive: 22.4 µM [quencher, side channel, partial curve]
COc1ccccc1NC(=O)Cc1csc(NC(=S)Nc2ccc(C)cc2)n1	inconclusive: 17.8 µM [quencher, side channel, partial curve]
COCCCN1CN(S(=O)(=O)c2ccc(C)cc2C)c2nc3ccccc3nc21	inactive
FC(F)(F)c1cc(CO[C@H]2CCCN[C@H]2c2ccccc2)cc(C(F)(F)F)c1	inconclusive: 20 µM [inhibitor, single point] and inconclusive: 2.82 µM [fluorescent, side channel, full curve]
CCCCN(CC)C(=O)c1cc2c(=O)[nH]c3ccc(C)cc3c2s1	inconclusive: 31.6 µM [inhibitor, partial curve]
O=C(Nc1ccccc1C(=O)O)c1ccc(CN2C(=O)c3ccccc3C2=O)cc1	inconclusive: 25.1 µM [quencher, side channel, single point]
O=C(Nc1cccc(C(F)(F)F)c1)c1cc2ncc(Br)cn2n1	inconclusive: 20 µM [inhibitor, partial curve]
Cc1c(NS(=O)(=O)c2cc(C(=O)NCCN(C)C)ccc2Cl)c(=O)n(-c2ccccc2)n1C	inconclusive: 22.4 µM [inhibitor, partial curve]
